± gives the standard deviation of the averaged measurements. Whole data set: some 33,000 sequences, median “E-score (dimensionless, -0.5 to 0.5)” near -0.046, cut for the highest 2% near 0.36. Some of the results follow.
system: T1, SpTbr T-box DNA-binding domain (GST fusion); assay: PBM E-score of 8-mer (E-score (dimensionless, -0.5 to 0.5)); Tbr is Tbrain of the sea star Patiria miniata (Pm) or the sea urchin Strongylocentrotus purpuratus (Sp); higher = stronger binding preference; most listed sequences are background and not binding sites; conditions: the construct has about 5 more residues each side
T1 sequence: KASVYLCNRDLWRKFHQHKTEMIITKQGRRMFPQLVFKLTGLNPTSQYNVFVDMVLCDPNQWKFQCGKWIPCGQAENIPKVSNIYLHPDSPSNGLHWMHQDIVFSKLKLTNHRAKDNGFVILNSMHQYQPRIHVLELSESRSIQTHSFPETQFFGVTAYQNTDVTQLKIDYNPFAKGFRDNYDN
Outline: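 Expression of GST-fused Tbr T-box DNA-binding domains, each holding the full T-box plus roughly five flanking residues, was carried out in BL21 E. coli at 20 °C, with purification by glutathione affinity chromatography. Universal Agilent arrays made double-stranded by primer extension were incubated with the protein at 200 nM in PBS (pH 7.5), then scanned and quantified. All ungapped 8-mers were scored from probe intensities, and each received an enrichment E-score from the Universal PBM Analysis Suite, averaged over duplicate arrays.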

Sequence	PBM E-score of 8-mer
CTCGTACA	-0.151 ± 0.039
CGGGAATC	0.0186 ± 0.011
GCTGGGCC	-0.144 ± 0.0084
TATTCACA	0.423 ± 0.023
CACTCGCG	0.305 ± 0.055
ACCTATGG	0.169 ± 0.063
CTATCCCA	0.0227 ± 0.039
GAGAAACC	0.0143 ± 0.067
AGACGAGG	-0.237 ± 0.07
AGTAATTA	-0.0156 ± 0.0019
CCTCCTTA	0.0284 ± 0.081
ACGTGTGA	0.4797 ± 0.0017
ATAACGCC	0.28 ± 0.032
ACTGTTCG	0.162 ± 0.077
ATCGCGTA	0.13 ± 0.024
TAAACGTA	-0.15 ± 0.057
AACTCTTC	-0.0442 ± 0.019
AACCGGTG	-0.0313 ± 0.081
GTCGATTA	-0.0532 ± 0.082
TCACGTAA	-0.0779 ± 0.033
CGGCCAAA	-0.0415 ± 0.0054
ATTGTTAA	0.268 ± 0.029
CACCGCTA	0.137 ± 0.11
CTGTTAAG	-0.00328 ± 0.026
AACTGTGT	0.19 ± 0.0056

Sequence	PBM E-score of 8-mer
GCTTGACA	0.258 ± 0.034
AGCAAGCA	-0.0131 ± 0.022
TCCATGAA	-0.206 ± 0.0095
CGAGCAAC	0.0555 ± 0.018
GGTTACCA	-0.0113 ± 0.0065
ACGGCCAT	-0.0972 ± 0.0073
GCCCCCGC	-0.102 ± 0.026
GACGCTGA	-0.182 ± 0.085
GTAGCGGA	-0.069 ± 0.069
CGTCGGGA	-0.243 ± 0.0031
CTGGTCGC	-0.0702 ± 0.03
ATTGGCAA	0.0872 ± 0.0069
ACGCGGAT	0.0845 ± 0.036
ATTTCCCG	-0.153 ± 0.03
TAGAGGAA	-0.279 ± 0.059
ATCACGCA	0.19 ± 0.026
AAAGCGCT	0.0608 ± 0.028
CCTGTTAA	0.168 ± 0.067
ATAGAACA	0.0898 ± 0.021
AAAGGTCT	-0.169 ± 0.032
AGAGTGTA	0.0671 ± 0.0042
CGTCACTA	0.217 ± 0.013
CCAATCAG	-0.132 ± 0.073
AGCGGCAG	-0.105 ± 0.044
CCGTGTTA	0.158 ± 0.029

Sequence	PBM E-score of 8-mer
ACCTTTAG	0.151 ± 0.06
ACTAAGGC	-0.0549 ± 0.052
ATGTACTA	-0.0833 ± 0.037
ATATGATA	0.0801 ± 0.013
TCAGAGCA	-0.203 ± 0.0079
GCACGGCA	-0.112 ± 0.05
AAATTCCA	-0.0365 ± 0.02
GGGAGGTA	-0.0233 ± 0.075
ACAACAAC	0.235 ± 0.0043
ACTCAAAT	-0.11 ± 0.082
GACTTAAC	0.158 ± 0.012
ACGCTGTG	0.0583 ± 0.06
AATTAATA	-0.0868 ± 0.03
ATAATATA	-0.0059 ± 0.035
ATCACGTG	0.211 ± 0.012
CGCTCCAG	-0.211 ± 0.091
GAGTGCGC	-0.0493 ± 0.043
AGACACCC	0.156 ± 0.041
AATCAAGC	-0.000185 ± 0.054
CAACTTAC	0.0737 ± 0.045
AGGTGTCG	0.486 ± 0.008
CTGGCCCA	-0.282 ± 0.14
AGCCGCTA	0.067 ± 0.054
CATCAGGA	-0.308 ± 0.0039
TCGTGCAA	-0.0231 ± 0.017

Sequence	PBM E-score of 8-mer
CGCATGAC	-0.16 ± 0.037
CCGGCTTC	-0.184 ± 0.041
GAGGGTGC	0.359 ± 0.007
AAGTTGAT	0.144 ± 0.023
CCTCTCTC	0.132 ± 0.042
AGTGTCTG	0.2201 ± 0.0011
ACTGATGC	-0.0503 ± 0.087
CATAATCA	-0.0563 ± 0.083
ACCCGGTC	-0.178 ± 0.048
ACTTATTC	0.0245 ± 0.057
AAGCTTCG	0.0241 ± 0.049
CGTGCGAC	0.238 ± 0.029
TAGGACCA	-0.225 ± 0.059
CATCCAAA	-0.108 ± 0.0082
GGTTCTCA	0.164 ± 0.055
CACTTCGG	0.347 ± 0.012
AGTGGCAG	0.171 ± 0.033
ATTATATG	-0.252 ± 0.075
CTCAATGA	-0.0417 ± 0.0066
CCCCGTAG	-0.098 ± 0.0035
CCTCACGA	-0.0333 ± 0.01
TGCGAAAA	0.383 ± 0.038
TAACATTA	-0.0674 ± 0.087
AGCAAAGC	-0.0455 ± 0.048
GTCCGGGA	-0.24 ± 0.0063

Sequence	PBM E-score of 8-mer
ATAATTCC	-0.291 ± 0.01
ACCTACCC	0.0259 ± 0.022
ATCTCACA	0.372 ± 0.0029
CCAATATC	-0.108 ± 0.032
GAAAAGTC	-0.0435 ± 0.043
AAGAGAGG	-0.163 ± 0.072
AAATGTTG	-0.022 ± 0.054
TACATGGA	-0.099 ± 0.029
AGAATGCT	-0.0245 ± 0.047
CCAGCCAC	0.0592 ± 0.097
ATTATTGA	-0.124 ± 0.03
GAGCCTAC	-0.098 ± 0.11
ATGAAACG	-0.212 ± 0.0067
CCCCGTAA	0.0793 ± 0.052
AGTAGTTC	0.121 ± 0.054
CAAGCGCC	-0.0398 ± 0.063
CACAGGAC	0.00838 ± 0.0025
AGGGTTGC	-0.0897 ± 0.0017
ACTTTAGG	-0.131 ± 0.075
AAATCGAT	-0.148 ± 0.05
GTCGGGCA	0.177 ± 0.054
ACCTAGAG	0.028 ± 0.067
CCTCTCAG	-0.0977 ± 0.011
GACTCCGC	-0.011 ± 0.024
GGCGCTAA	0.4 ± 0.035

Sequence	PBM E-score of 8-mer
CTTTGCAA	0.0361 ± 0.021
ACCGGAAC	-0.2 ± 0.03
ACCCGTTG	0.124 ± 0.01
AGACGTTG	-0.104 ± 0.061
CCCACGAA	0.0416 ± 0.034
CTTAGGAC	-0.296 ± 0.04
TACTAGCA	0.0537 ± 0.055
AGTGTTTG	0.219 ± 0.041
TCCAGTAA	-0.172 ± 0.0047
AGCTACAC	0.142 ± 0.039
CGGCTGAC	-0.00987 ± 0.087
CTTCTCGC	0.207 ± 0.023
ACGAATCG	0.156 ± 0.013
CGGTTGCA	0.111 ± 0.037
CGGAGCCG	-0.105 ± 0.061
GATACAGA	-0.168 ± 0.013
AGCGAACG	0.0538 ± 0.025
ATTTCGCC	-0.0532 ± 0.044
CGTTTCTA	-0.105 ± 0.033
ATCATGAG	-0.199 ± 0.045
GATACCTA	-0.163 ± 0.011
CATGCCAG	-0.0834 ± 0.021
GTTCTCTA	-0.1294 ± 0.00039
CGCTTAGA	-0.0545 ± 0.088
GAAGGTGC	0.41 ± 0.019

Sequence	PBM E-score of 8-mer
AAACCCTT	-0.2653 ± 0.0025
GATATCTA	-0.0892 ± 0.022
CATCGCCA	0.107 ± 0.026
ACGATGTC	-0.118 ± 0.0065
AGCGTTAT	0.0858 ± 0.052
CCAAGATA	-0.0544 ± 0.0035
AACTGGCC	0.0198 ± 0.092
ACATTTAG	-0.075 ± 0.032
TCGATCGA	-0.0919 ± 0.054
AATCCTGG	-0.11 ± 0.049
GCTCGCGA	0.231 ± 0.037
GATAGGTA	-0.0272 ± 0.1
CGCCGTGC	-0.0346 ± 0.02
CGATACTC	-0.0278 ± 0.047
CCGTGAGG	0.00014 ± 0.063
CCCAGGCA	-0.237 ± 0.043
AGACGTAC	-0.0414 ± 0.071
AACCTCTC	-0.0774 ± 0.028
AACGGCCG	-0.00712 ± 0.0022
ACACCTAT	0.4592 ± 0.0012
TGTTAGAA	0.148 ± 0.032
GTAACTTA	-0.18 ± 0.14
